# Article PMC5155157
# The chains behind the UniProt entries cited, without tags or fusion partners. Where a name states a change or a piece, a line headed by the entry shows the natural chain unless it says otherwise.
# UniProt Q93009: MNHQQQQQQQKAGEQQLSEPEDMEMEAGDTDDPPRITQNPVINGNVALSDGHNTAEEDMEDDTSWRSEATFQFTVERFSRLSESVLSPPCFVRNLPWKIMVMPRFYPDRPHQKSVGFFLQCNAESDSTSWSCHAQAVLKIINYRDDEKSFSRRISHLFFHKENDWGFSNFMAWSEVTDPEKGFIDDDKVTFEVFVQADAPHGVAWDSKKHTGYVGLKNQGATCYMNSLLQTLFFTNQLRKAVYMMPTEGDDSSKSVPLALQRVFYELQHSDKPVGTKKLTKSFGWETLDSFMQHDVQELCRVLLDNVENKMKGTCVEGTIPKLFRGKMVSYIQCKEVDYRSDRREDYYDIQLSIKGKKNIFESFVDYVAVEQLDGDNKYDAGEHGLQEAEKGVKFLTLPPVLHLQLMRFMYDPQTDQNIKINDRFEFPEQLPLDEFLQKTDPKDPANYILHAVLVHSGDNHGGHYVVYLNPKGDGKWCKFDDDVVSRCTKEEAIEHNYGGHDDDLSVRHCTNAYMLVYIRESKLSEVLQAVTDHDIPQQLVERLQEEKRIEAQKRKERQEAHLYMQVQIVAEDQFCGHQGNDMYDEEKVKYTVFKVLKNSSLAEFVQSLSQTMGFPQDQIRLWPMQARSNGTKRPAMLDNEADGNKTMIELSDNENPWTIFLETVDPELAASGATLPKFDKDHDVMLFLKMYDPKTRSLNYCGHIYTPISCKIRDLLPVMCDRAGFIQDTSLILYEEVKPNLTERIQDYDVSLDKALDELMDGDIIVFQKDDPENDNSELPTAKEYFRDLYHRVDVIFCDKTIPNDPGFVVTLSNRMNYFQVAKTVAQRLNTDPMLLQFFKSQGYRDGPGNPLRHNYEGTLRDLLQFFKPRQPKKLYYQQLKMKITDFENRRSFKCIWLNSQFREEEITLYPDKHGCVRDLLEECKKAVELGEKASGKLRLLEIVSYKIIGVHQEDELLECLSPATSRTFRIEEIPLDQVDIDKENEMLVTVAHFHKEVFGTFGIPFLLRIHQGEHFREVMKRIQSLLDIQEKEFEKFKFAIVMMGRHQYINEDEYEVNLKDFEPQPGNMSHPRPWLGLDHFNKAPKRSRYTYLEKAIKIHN
# UniProt Q16665: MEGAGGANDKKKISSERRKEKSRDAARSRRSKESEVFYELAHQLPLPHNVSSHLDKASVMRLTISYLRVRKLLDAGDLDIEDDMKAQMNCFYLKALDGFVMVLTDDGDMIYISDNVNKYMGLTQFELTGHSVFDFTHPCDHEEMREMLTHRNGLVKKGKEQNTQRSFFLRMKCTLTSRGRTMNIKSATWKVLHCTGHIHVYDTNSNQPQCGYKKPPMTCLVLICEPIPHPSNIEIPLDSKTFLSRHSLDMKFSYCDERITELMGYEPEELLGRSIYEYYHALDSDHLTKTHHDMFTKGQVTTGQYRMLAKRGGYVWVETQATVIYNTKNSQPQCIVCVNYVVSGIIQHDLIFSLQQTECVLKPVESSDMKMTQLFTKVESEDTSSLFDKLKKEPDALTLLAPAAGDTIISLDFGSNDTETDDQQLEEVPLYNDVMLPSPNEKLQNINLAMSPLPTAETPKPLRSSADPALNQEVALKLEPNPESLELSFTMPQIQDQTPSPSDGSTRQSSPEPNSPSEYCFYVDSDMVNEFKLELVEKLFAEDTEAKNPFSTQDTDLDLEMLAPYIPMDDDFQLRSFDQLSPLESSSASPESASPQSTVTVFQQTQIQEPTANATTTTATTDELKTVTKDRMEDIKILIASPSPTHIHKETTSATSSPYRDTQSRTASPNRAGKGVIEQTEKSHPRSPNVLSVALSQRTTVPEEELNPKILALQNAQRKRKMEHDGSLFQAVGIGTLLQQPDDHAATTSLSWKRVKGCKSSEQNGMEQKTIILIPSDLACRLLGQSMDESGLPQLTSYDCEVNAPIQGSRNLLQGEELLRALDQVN
# UniProt P49336: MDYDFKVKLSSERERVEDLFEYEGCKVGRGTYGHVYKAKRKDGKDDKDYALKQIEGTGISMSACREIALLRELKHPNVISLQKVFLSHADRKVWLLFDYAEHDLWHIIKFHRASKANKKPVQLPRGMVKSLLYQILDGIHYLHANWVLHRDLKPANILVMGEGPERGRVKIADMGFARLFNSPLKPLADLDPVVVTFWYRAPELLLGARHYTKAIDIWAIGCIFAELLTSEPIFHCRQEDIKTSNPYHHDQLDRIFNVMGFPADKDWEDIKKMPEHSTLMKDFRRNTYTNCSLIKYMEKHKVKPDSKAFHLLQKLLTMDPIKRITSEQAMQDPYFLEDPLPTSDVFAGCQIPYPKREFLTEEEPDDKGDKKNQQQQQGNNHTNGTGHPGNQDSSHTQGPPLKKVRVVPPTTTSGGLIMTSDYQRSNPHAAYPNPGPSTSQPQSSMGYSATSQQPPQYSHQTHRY
# UniProt Q92793: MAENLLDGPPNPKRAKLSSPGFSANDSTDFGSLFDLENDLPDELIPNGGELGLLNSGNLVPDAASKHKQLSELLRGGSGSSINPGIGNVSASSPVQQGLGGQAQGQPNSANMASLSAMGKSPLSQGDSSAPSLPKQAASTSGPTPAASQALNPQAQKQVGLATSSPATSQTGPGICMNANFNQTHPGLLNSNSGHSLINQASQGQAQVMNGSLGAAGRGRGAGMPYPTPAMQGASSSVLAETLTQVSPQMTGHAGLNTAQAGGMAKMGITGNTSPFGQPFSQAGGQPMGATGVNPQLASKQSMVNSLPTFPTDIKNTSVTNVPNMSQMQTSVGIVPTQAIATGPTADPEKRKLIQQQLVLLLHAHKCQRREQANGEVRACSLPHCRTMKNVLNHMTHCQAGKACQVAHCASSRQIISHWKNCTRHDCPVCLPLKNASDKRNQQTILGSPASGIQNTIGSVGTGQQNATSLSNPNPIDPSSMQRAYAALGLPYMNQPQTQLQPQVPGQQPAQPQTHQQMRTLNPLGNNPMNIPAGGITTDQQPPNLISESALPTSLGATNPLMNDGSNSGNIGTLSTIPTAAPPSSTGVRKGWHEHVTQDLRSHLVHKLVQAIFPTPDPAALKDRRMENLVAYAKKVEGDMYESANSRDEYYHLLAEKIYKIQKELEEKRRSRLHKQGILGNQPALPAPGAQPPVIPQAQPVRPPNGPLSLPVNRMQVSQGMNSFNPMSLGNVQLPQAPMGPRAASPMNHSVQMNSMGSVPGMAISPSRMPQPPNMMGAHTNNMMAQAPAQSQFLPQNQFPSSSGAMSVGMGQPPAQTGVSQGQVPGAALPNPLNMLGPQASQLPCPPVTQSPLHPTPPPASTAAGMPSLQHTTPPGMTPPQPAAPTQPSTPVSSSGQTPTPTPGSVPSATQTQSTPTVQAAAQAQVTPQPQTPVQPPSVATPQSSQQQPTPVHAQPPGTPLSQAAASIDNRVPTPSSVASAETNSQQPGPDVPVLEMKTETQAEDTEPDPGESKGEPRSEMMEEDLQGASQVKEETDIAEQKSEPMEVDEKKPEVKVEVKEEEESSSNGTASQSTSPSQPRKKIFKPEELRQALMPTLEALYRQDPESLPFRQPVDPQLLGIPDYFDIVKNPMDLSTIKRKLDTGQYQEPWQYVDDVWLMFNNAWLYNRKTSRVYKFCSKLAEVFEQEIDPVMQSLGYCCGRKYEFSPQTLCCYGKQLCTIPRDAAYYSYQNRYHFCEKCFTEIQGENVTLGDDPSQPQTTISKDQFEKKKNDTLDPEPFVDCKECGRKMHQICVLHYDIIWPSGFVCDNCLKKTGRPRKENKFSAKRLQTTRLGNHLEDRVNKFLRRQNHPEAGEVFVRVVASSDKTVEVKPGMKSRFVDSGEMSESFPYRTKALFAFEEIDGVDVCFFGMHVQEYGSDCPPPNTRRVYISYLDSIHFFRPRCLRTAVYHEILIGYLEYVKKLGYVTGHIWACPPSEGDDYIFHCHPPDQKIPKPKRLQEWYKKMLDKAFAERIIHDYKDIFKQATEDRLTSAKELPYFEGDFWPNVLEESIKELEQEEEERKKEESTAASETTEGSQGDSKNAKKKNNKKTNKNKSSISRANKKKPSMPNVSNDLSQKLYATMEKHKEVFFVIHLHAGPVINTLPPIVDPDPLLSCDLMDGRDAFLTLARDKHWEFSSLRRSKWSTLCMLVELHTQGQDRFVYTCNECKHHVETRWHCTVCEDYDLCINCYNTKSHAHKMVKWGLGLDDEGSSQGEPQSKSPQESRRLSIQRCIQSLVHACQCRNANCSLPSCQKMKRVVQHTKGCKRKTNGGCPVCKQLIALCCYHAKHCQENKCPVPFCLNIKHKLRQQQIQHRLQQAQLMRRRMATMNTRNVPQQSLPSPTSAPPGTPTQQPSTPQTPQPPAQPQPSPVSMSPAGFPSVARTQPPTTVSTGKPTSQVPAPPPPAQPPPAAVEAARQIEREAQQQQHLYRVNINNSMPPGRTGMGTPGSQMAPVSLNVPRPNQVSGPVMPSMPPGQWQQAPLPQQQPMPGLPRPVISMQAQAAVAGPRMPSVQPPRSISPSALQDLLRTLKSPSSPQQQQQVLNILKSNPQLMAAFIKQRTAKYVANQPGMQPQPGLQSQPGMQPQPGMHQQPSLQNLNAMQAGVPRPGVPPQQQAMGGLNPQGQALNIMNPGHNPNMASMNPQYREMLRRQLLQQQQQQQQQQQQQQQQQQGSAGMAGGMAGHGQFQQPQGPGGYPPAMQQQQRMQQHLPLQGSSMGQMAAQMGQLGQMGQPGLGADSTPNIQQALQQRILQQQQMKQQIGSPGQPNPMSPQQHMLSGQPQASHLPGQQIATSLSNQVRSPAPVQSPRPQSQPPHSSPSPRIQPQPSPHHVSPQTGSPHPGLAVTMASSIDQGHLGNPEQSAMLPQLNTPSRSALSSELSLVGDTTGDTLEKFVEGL
# UniProt O75317: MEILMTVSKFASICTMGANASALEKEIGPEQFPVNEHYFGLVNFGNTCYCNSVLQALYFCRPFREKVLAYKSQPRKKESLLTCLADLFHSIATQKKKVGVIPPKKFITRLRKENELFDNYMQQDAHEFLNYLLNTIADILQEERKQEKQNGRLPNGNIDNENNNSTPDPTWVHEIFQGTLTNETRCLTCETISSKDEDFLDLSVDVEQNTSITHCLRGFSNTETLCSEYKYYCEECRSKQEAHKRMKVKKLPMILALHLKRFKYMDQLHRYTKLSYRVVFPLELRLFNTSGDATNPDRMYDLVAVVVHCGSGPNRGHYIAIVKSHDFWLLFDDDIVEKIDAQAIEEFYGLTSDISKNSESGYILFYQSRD
# Where two headings read alike, the source gives them in different places. These are yes or no findings as the source states them, for the method shown. Binding seen in cells or lysates may run through a third protein. Some results given as binding are weak or reduced against the parent protein; the word gives no strength.
# What was measured:
# [1] = biological target: HAUSP (USP7), endogenous in human cancer cell lines (human (endogenous in H1299, PC3, MDA-MB-231)) (UniProt Q93009); assay: co-IP; endogenous proteins in lysates of H1299, PC3 or MDA-MB-231 cells; normoxia or hypoxia; some panels with MG132 or in control versus HAUSP knockdown cells
# [2] = biological target: HA-HIF-1α wild type, overexpressed (UniProt Q16665); assay: co-IP; whole cell lysates of 293T cells overexpressing both proteins; lysis in 150 mM NaCl, 1% Nonidet P-40, 1% deoxycholate, 0.1% SDS, 50 mM Tris HCl pH 7.5; protein-A beads; normoxia or hypoxia (1% O2, 18 h)
# [3] = biological target: HIF-1α, endogenous in human cancer cell lines (human (endogenous in H1299, PC3, MDA-MB-231)) (UniProt Q16665); assay: co-IP; endogenous proteins in lysates of H1299, PC3 or MDA-MB-231 cells; normoxia or hypoxia; some panels with MG132 or in control versus HAUSP knockdown cells
# [4] = biological target: HAUSP (USP7) wild type, overexpressed (UniProt Q93009); assay: co-IP; whole cell lysates of 293T cells overexpressing both proteins; lysis in 150 mM NaCl, 1% Nonidet P-40, 1% deoxycholate, 0.1% SDS, 50 mM Tris HCl pH 7.5; protein-A beads; normoxia or hypoxia (1% O2, 18 h)
# [5] = biological target: HIF-1α^S366A mutant (UniProt Q16665); assay: as above
# [6] = biological target: HAUSP (USP7), endogenous in human cancer cell lines (human (endogenous in H1299, PC3, MDA-MB-231)) (UniProt Q93009); assay: co-IP; endogenous proteins in lysates of H1299, PC3 or MDA-MB-231 cells; normoxia or hypoxia; some panels with MG132 or in control versus HAUSP knockdown cells; remark: listed apart in the source
# [7] = biological target: HAUSP^K443R mutant (UniProt Q93009); assay: co-IP; HAUSP wild type or K443R overexpressed (293T), partner (CBP, AFF4) not said to be overexpressed; hypoxia; anti-CBP antibodies for CBP, HAUSP used to pull down AFF4
# [8] = biological target: HAUSP (USP7) wild type, overexpressed (UniProt Q93009); assay: as above
molecule,measurement,setting,value
CDK8 (from UniProt P49336 1-464),binding,[1],binds
truncated HAUSP (a.a. 210–1100) (from UniProt Q93009 210-1100) (domain or fragment),binding,[2],no binding
HAUSP^K443R mutant (from UniProt Q93009 1-1102) (enzyme),binding,[2],binds
"CBP, endogenous (from UniProt Q92793 1-2442) (enzyme)",binding,[3],binds
"Flag-CBP wild type, overexpressed (from UniProt Q92793 1-2442) (enzyme)",binding,[2],binds
USP12 (from UniProt O75317 1-370) (enzyme),binding,[2],no binding
"HIF-1α N-terminal (a.a. 1–400) domain, expressed in cells (from UniProt Q16665 1-400) (domain or fragment)",binding,[4],binds
"HAUSP (USP7) wild type, overexpressed (from UniProt Q93009 1-1102) (enzyme)",binding,[2],binds
same,binding,[5],no binding
"HIF-1α, endogenous in human cancer cell lines (from UniProt Q16665 1-826)",binding,[1],binds
"MED26 (protein, UniProt O95402 1-600) MTAAPASPQQIRDRLLQAIDPQSNIRNMVAVLEVISSLEKYPITKEALEETRLGKLINDVRKKTKNEELAKRAKKLLRSWQKLIEPAHQHEAALRGLAGATGSANGGAHNCRPEVGAAGPPRSIHDLKSRNDLQRLPGQRLDRLGSRKRRGDQRDLGHPGPPPKVSKASHDPLVPNSSPLPTNGISGSPESFASSLDGSGHAGPEGSRLERDENDKHSGKIPVNAVRPHTSSPGLGKPPGPCLQPKASVLQQLDRVDETPGPPHPKGPPRCSFSPRNSRHEGSFARQQSLYAPKGSVPSPSPRPQALDATQVPSPLPLAQPSTPPVRRLELLPSAESPVCWLEQPESHQRLAGPGCKAGLSPAEPLLSRAGFSPDSSKADSDAASSGGSDSKKKKRYRPRDYTVNLDGQVAEAGVKPVRLKERKLTFDPMTRQIKPLTQKEPVRADSPVHMEQQSRTELDKQEAKASLQSPFEQTNWKELSRNEIIQSYLSRQSSLLSSSGAQTPGAHHFMSEYLKQEESTRQGARQLHVLVPQSPPTDLPGLTREVTQDDLDRIQASQWPGVNGCQDTQGNWYDWTQCISLDPHGDDGRLNILPYVCLD",binding,[6],binds
"AFF4 (protein, UniProt Q9UHB7 1-1163) MNREDRNVLRMKERERRNQEIQQGEDAFPPSSPLFAEPYKVTSKEDKLSSRIQSMLGNYDEMKDFIGDRSIPKLVAIPKPTVPPSADEKSNPNFFEQRHGGSHQSSKWTPVGPAPSTSQSQKRSSGLQSGHSSQRTSAGSSSGTNSSGQRHDRESYNNSGSSSRKKGQHGSEHSKSRSSSPGKPQAVSSLNSSHSRSHGNDHHSKEHQRSKSPRDPDANWDSPSRVPFSSGQHSTQSFPPSLMSKSNSMLQKPTAYVRPMDGQESMEPKLSSEHYSSQSHGNSMTELKPSSKAHLTKLKIPSQPLDASASGDVSCVDEILKEMTHSWPPPLTAIHTPCKTEPSKFPFPTKESQQSNFGTGEQKRYNPSKTSNGHQSKSMLKDDLKLSSSEDSDGEQDCDKTMPRSTPGSNSEPSHHNSEGADNSRDDSSSHSGSESSSGSDSESESSSSDSEANEPSQSASPEPEPPPTNKWQLDNWLNKVNPHKVSPASSVDSNIPSSQGYKKEGREQGTGNSYTDTSGPKETSSATPGRDSKTIQKGSESGRGRQKSPAQSDSTTQRRTVGKKQPKKAEKAAAEEPRGGLKIESETPVDLASSMPSSRHKAATKGSRKPNIKKESKSSPRPTAEKKKYKSTSKSSQKSREIIETDTSSSDSDESESLPPSSQTPKYPESNRTPVKPSSVEEEDSFFRQRMFSPMEEKELLSPLSEPDDRYPLIVKIDLNLLTRIPGKPYKETEPPKGEKKNVPEKHTREAQKQASEKVSNKGKRKHKNEDDNRASESKKPKTEDKNSAGHKPSSNRESSKQSAAKEKDLLPSPAGPVPSKDPKTEHGSRKRTISQSSSLKSSSNSNKETSGSSKNSSSTSKQKKTEGKTSSSSKEVKEKAPSSSSNCPPSAPTLDSSKPRRTKLVFDDRNYSADHYLQEAKKLKHNADALSDRFEKAVYYLDAVVSFIECGNALEKNAQESKSPFPMYSETVDLIKYTMKLKNYLAPDATAADKRLTVLCLRCESLLYLRLFKLKKENALKYSKTLTEHLKNSYNNSQAPSPGLGSKAVGMPSPVSPKLSPGNSGNYSSGASSASASGSSVTIPQKIHQMAASYVQVTSNFLYATEIWDQAEQLSKEQKEFFAELDKVMGPLIFNASIMTDLVRYTRQGLHWLRQDAKLIS",binding,[6],binds
same,binding,[7],binds
same,binding,[8],binds
